Hit rate of the full screen: of about 52,000 compounds, about 4,300 (8.3%) were called active. Rule as the data show it: active = survival mostly below about 52% (no sharp cut-off); inactive = mostly above about 56%. This is one part of the list.

These results are taken from PubChem BioAssay AID463173 (ICCB-Longwood Screening Facility, Harvard Medical School, 2010).

The experiment deals with DeltatarO mutant. As to the kind of experiment: growth inhibition of S. aureus wild type versus tarO mutant, primary screen, teichoic acid synthesis inhibitors, RN4220, OD600 (AID 463173). As to conditions: OD600, 18 h, stronger effect = lower value, screened at 18.75 µg/mL (by protocol).
Consider `CCOC(=O)c1ccc(NC(=O)C(Cc2ccccc2)N2Cc3ccccc3C2=O)cc1` (stereo unspecified), for which the survival was inactive: 77%. The value for `Cc1ccc(-c2nn3c(=O)cc(CN4CCN(C(=O)/C=C/c5ccccc5)CC4)nc3s2)cc1` was inactive: 68%; that for `CCCOc1ccc(C(=O)Nc2ccc3oc(-c4cccc(Cl)c4Cl)nc3c2)cc1` was inactive: 80%; that for `CCOC(=O)c1ccc(NC(=O)CSc2cn(CC(=O)N3CCCC3)c3ccccc23)cc1` was inactive: 66%. As for `Nc1nc2c(ccc3[nH]c(=O)c(=O)[nH]c32)s1`, the survival is inactive: 90%. Turning to `Cc1ccc(-n2nc3c(N4CCCC(C(=O)NCc5ccc(Cl)cc5)C4)nnc(C)c3c2C)cc1` (stereo unspecified), the survival is inactive: 89%. On to `COC(=O)c1ccc2c(c1)N(CC(=O)Nc1ccc(OC)c(Cl)c1)C(=O)c1ccccc1S2`, for which the survival is inactive: 68%.

Take `O=C(CCS(=O)(=O)c1nc(-c2cccs2)cc(C(F)(F)F)n1)Nc1cc(Br)ccc1O`: the survival is active: 15%.

Turning to `CC1=C(C(=O)Nc2ccc(C)cc2C)C(c2ccc([N+](=O)[O-])cc2)n2ncc(C(=O)Nc3ccc(F)cc3)c2N1` (stereo unspecified), the survival was inactive: 101%. For the compound `Cc1ccc(-n2c(=O)c3c(cnn3C)n(CC(=O)Nc3ccc(C)cc3C)c2=O)cc1`, the survival is inactive: 90%. With `CN(c1ccc(F)cc1)S(=O)(=O)N1CCCC(C(=O)NCc2cccc(Br)c2)C1` (stereo unspecified), the survival is inactive: 72%. In the case of `Cc1ccccc1Cc1c(C)nc2nc(SCC(=O)N(C)c3ccccc3)nn2c1C`, the survival is inactive: 78%. Under `Cc1c(C(=O)N2CCC(C)CC2)c(S(=O)(=O)NCc2ccc(Cl)cc2)c(C)n1C` stands inactive: 128%. For the compound `CCN(CC)c1ccc2cc(-c3nc(-c4cccs4)no3)c(=O)oc2c1`, the survival was inactive: 83%. Consider `CC(=O)c1ccc(N2CCN(C(=O)CCC(=O)Nc3ccc4nc(N5CCCCC5)cc(C)c4c3)CC2)cc1`, for which the survival was inactive: 73%. In the case of `COC(=O)CNC(=O)C1CCN(S(=O)(=O)c2cccc3nsnc23)CC1`, the survival is inactive: 92%. Turning to `Cc1ccc(C(=O)c2c(N)c(C(=O)Nc3ccccc3Cl)c3ccccn23)cc1`, the survival is inactive: 69%. `CCOc1ccc(OCC(=O)NCCS(=O)(=O)N2CCN(c3ccccc3F)CC2)cc1`: the survival was inactive: 71%. Under `Cc1ccc(CCNC(=O)c2ccc3c(c2)nc2n3CCCCC2)cc1` stands inactive: 102%; under `COc1ccc(S(=O)(=O)Nc2ccc(-c3ccc(N4CCCC4)nn3)cc2)cc1F`, inactive: 88%.

`Cc1sc2ncn(CC(=O)Nc3cccc(C(F)(F)F)c3)c(=O)c2c1S(=O)(=O)N1CCN(C)CC1`: the survival is inactive: 60%. As to `COc1ccccc1CNC(=O)CN(C)c1nn2c(=O)cc(C)nc2s1`, the survival is inactive: 101%.

For the compound `CCc1ccc(NC(=O)C2CCCN2S(=O)(=O)c2ccc3c(c2)n(C)c(=O)c(=O)n3C)cc1` (stereo unspecified), the survival was inactive: 93%. As for `Cn1c(CS(=O)(=O)c2ccc(Cl)cc2)c(C#N)c2ccccc21`, the survival was inactive: 80%. Under `COc1ccc2c(c1)cc1c(=O)n(CC(=O)NC(C)C)nc(C)n12` stands inactive: 78%; under `CC(=O)c1ccc(NC(=O)CSc2nnc3ccc(-c4ccc(Br)cc4)nn23)cc1`, inactive: 66%. Take `COc1ccccc1NC(=O)CCC(=O)N1CC(C)Oc2ccc(C)cc21` (stereo unspecified): the survival was inactive: 58%. On to `COc1cc(CN2CCN(C(=O)c3cccc4ccccc34)CC2)cc(OC)c1OC`, for which the survival is inactive: 72%. `CC1CCN(S(=O)(=O)c2ccc3c(c2)c(=O)c(C(=O)NCCc2ccccc2)cn3C)CC1`: the survival was inactive: 101%. As to `COc1ccc(S(=O)(=O)NCCc2csc3nc(-c4cccc(C)c4)nn23)cc1F`, the survival is inactive: 89%. As to `CCCCN1C(=O)c2[nH]nc(-c3ccccc3O)c2C1c1ccc(OCc2ccccc2)cc1` (stereo unspecified), the survival is active: 43%. As for `COc1ccccc1NC(=O)CSc1nnc(NC(=O)Nc2ccc(C)cc2)s1`, the survival is inactive: 58%. The value for `CN(C)CCNC(=O)c1ccc2c(c1)NC(=O)C(CS(=O)(=O)Cc1cccc(Br)c1)N2` (stereo unspecified) was inactive: 108%; that for `COc1ccccc1CNC(=O)c1c(O)nc2c(C)cccn2c1=O` was inactive: 69%. For `CN(C(=O)CSc1nc(C2CCCC2)nc2c1c(=O)n(C)c(=O)n2C)c1ccccc1`, the survival was inactive: 94%. On to `Cc1cccc(C)c1OC(=O)CSc1nnc(CNC(=O)c2ccccc2)o1`, for which the survival is inactive: 92%. The value for `CC1CCN(C(=O)CSc2nnc(-c3ccccc3)o2)CC1` was inactive: 75%; that for `COc1ccc(NC(=O)Cn2c(=O)c3cc(Cl)ccc3n3nncc23)cc1` was inactive: 126%; that for `CC(C)CCNS(=O)(=O)c1ccc(N2CCCCS2(=O)=O)cc1` was inactive: 82%. `CCOc1ccc(C(=O)c2cn(CC(=O)Nc3ccc4c(c3)OCCO4)c3ccc(F)cc3c2=O)cc1`: the survival is inactive: 91%. With `COc1ccccc1-c1noc(-c2ccc(NCc3ccco3)c([N+](=O)[O-])c2)n1`, the survival is inactive: 97%. With `S=C1NNC2(CC3CC2C2CCCC32)NN1` (stereo unspecified), the survival was inactive: 58%. Turning to `Cc1ccc(S(=O)(=O)N2CCCC(NC(=O)NCc3ccco3)C2)cc1` (stereo unspecified), the survival was inactive: 100%.

On to `O=C(Nc1cccc(C(F)(F)F)c1)c1cc(S(=O)(=O)N2CCCC2)c[nH]1`, for which the survival is inactive: 88%. Consider `CC(=O)n1c(=O)oc2cc(Cl)ccc21`, for which the survival was inactive: 108%. On to `COc1ccc(NC(=O)Cn2nnc(C(=O)NCc3ccc4c(c3)OCO4)c2N)cc1`, for which the survival was inactive: 76%.

For the compound `Cc1cccc(N2CCN(C(=O)c3ccc4c(Cl)c5c(nc4c3)CCCC5)CC2C)c1` (stereo unspecified), the survival is inactive: 76%. Turning to `COc1ccc(-n2nnc(-c3nsc(NC(=O)c4ccc(C)c(C)c4)n3)c2C)cc1Cl`, the survival was inactive: 126%. Turning to `O=C(CSc1oc(-c2ccccc2)nc1S(=O)(=O)c1ccc(Cl)cc1)NC1CCCCC1`, the survival is inactive: 60%. In the case of `CCCc1nnc(NC(=O)Cc2coc3ccc(C(C)C)cc23)s1`, the survival was inactive: 69%. Take `COCCCNC(=O)CSc1nc2cc3c(cc2c(=O)n1CCCCCC(=O)NCc1ccc(OC)cc1)OCO3`: the survival was active: 6%. Under `CC(C)COC(=O)Cn1nnc2sc(-c3ccccc3)cc2c1=O` stands inactive: 61%; under `Cc1cc(C)c(NS(=O)(=O)c2cc(-c3onc(C)c3C)ccc2C)c(C)c1`, inactive: 83%; under `O=C(CN1CCCN(S(=O)(=O)c2ccc(Br)cc2)CC1)Nc1cccc(C(F)(F)F)c1`, inactive: 69%. Take `CC1CCN(C(=O)c2ccc3c(c2)N(Cc2ccccc2)C(=O)c2ccccc2S3(=O)=O)CC1`: the survival was inactive: 59%. Consider `Cc1ccc(NC(=O)c2cnc(SCC(=O)N3CCOCC3)n(C)c2=O)cc1C`, for which the survival was inactive: 101%. On to `CN(C)c1ccc(N/C=C(\C#N)c2nc3ccccc3[nH]2)cc1`, for which the survival is inactive: 76%. `CCOc1ccc(NC(=O)CCc2nc3cccnc3n2-c2ccccc2)cc1`: the survival was inactive: 80%. Consider `COC(=O)c1cc2c(ccn2-c2ccc(F)cc2)n1CC(=O)c1ccc(OC)cc1`, for which the survival was inactive: 64%. For the compound `CCN(Cc1ccccc1)Cc1c(O)ccc2c(=O)c(-c3ccc(Cl)cc3)coc12`, the survival was inactive: 64%. For `O=C(NCc1ccccc1Cl)c1cnc(N2CCOCC2)c2ccccc12`, the survival is inactive: 101%. As for `Cc1ccc(-c2cc(-c3coc4ccc(Cl)cc4c3=O)c3c(n2)-c2ccccc2OC3)cc1`, the survival was inactive: 77%. With `N#CSc1ccc(N2CCCCC2)cc1`, the survival is inactive: 69%. Turning to `Cc1ccc(C)c(N2CCN(C(=O)CCNS(=O)(=O)c3ccc4c(c3)CCN4C(=O)C3CC3)CC2)c1`, the survival is inactive: 99%. Under `O=C(C1CCC(Cn2c(=O)c3sccc3n(Cc3ccccc3)c2=O)CC1)N1CCCCC1` (stereo unspecified) stands inactive: 78%; under `CC(C)CN(CCCNC(=O)c1cc(=O)[nH]c2ccc(S(=O)(=O)N3CCCC3)cc12)CC(C)C`, inactive: 107%. Under `Cc1ccc(CNC(=O)CCCCCn2c(=O)c3sccc3n(CC(=O)Nc3ccc(C)c(F)c3)c2=O)cc1` stands inactive: 138%; under `CCc1cnc2c(c1SCc1ccccc1C)c(=O)n(C)c(=O)n2C`, inactive: 65%.

In the case of `O=c1[nH]c2ccccc2nc1/C=C(\O)c1ccccc1`, the survival was inactive: 83%. With `CN1CCc2c(sc(NC(=O)CSc3ccc(F)cc3)c2-c2nc3ccccc3s2)C1`, the survival is inactive: 122%. Regarding `CCOC(=O)C1CCN(CN2C(=O)CCC2=O)CC1`, the survival was inactive: 94%. In the case of `CCN1C(C(=O)c2ccccc2)=C(OC(=O)COc2ccc(OC)cc2)c2ccccc2S1(=O)=O`, the survival is inactive: 60%. For `COc1ccc2c(c1)c(CC(=O)Nc1ccc(C(C)=O)cc1)c(C)n2C(=O)c1ccc(Cl)cc1`, the survival is inactive: 70%. As to `CCOC(=O)CSc1nnc(-c2ccc(S(=O)(=O)NCc3cccs3)cc2)o1`, the survival is inactive: 80%. `Cc1ccc(NC(=O)c2oc3ccccc3c2NC(=O)c2ccc(F)c(F)c2)cc1`: the survival was inactive: 89%. On to `COc1ccc(S(=O)(=O)NCCS(=O)(=O)N2CCN(c3ccccc3)CC2)cc1OC`, for which the survival is inactive: 86%. The value for `CCc1ccc(NC(=O)CSc2nc3c(oc4ccccc43)c(=O)n2-c2cccc(C)c2)cc1` was inactive: 76%; that for `O=C(Nc1nc2ccc(Cl)cc2s1)c1cc(=O)c2ccccc2o1` was active: 32%; that for `CCc1cccc(CC)c1NC(=O)C(Cc1ccccc1)NS(=O)(=O)c1cccc2nsnc12` (stereo unspecified) was inactive: 68%. The value for `COc1ccccc1-n1c(=O)n(C)c2c(C(N)=O)nc(-c3cc(OC)c(OC)c(OC)c3)nc21` was inactive: 91%; that for `COc1cc2c(cc1NC(=O)C(C)Oc1ccccc1)oc1ccccc12` (stereo unspecified) was active: -1%.

Consider `O=C(NCc1ccc(Cl)cc1Cl)c1cccc(N2CCCS2(=O)=O)c1`, for which the survival is inactive: 46%. `CCn1cc2nc(SCc3cccc(C(F)(F)F)c3)n(Cc3ccc(C)cc3)c(=O)c2n1`: the survival is inactive: 75%. As to `Cc1cc(F)ccc1NC(=O)c1c(C)oc2c1C1=NCCN1C=N2`, the survival is inactive: 102%. For the compound `Cc1cc(Br)ccc1NC(=O)C1CC(O)CN1C(=O)OCc1ccccc1` (stereo unspecified), the survival was inactive: 93%. Take `COc1ccc(-c2cc(C(=O)Nc3cnn(Cc4ccc(F)cc4)c3)no2)cc1OC`: the survival was inactive: 63%.
